Reference: publication PMC12040169 (PLOS Biology, 2025)
The list shows a part of the results.

What follows are molecules tested on T1, C. trachomatis L2/434/Bu expressing GFP (CTL2-GFP). Conditions: total inclusion area; 28.5 h, 10 µM; inhibitor.
T1 construct: L2/434/Bu GFP intracellular growth in HeLa cells
Parameters: species or system HeLa; C. trachomatis total inclusion area by high-content imaging, normalised to DMSO
Outline: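 Bulk GFP and resorufin signals were read first. Wells were then fixed, stained with Hoechst and imaged to detect GFP inclusions and host nuclei. MICs followed the previously described calculation.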

Row | SMILES | % of control remaining
1 | CN(C)Cc1cc(CN(C)C)c(O)c(CCc2ccccc2)n1 [CBK278316C] | 96.7927
2 | COCCNC(=O)c1c(NC(=O)c2ccccc2C)sc2c1CCCC2 [CBK091645] | 75.114
3 | CN(C)CCn1c(=O)[nH]c2ncc(-c3ccoc3)nc21 [CBK064294] | 109.624
4 | C=CCNC(=O)c1cnc(-c2ccc(Cl)cc2)c(-c2ccco2)c1 [CBK036738] | 115.931
5 | Cc1ccccc1-c1cnc(NS(C)(=O)=O)c(C(=O)N(C)C)c1 [CBK106430] | 95.3848
6 | CC1=NN(c2ccccc2)C(=O)/C1=C\c1ccc(Cl)cc1 [CBK067772] | 88.4306
7 | COc1cc(C2C3=C(CC(C)(C)CC3=O)Nc3ncnn32)ccc1OCC(=O)N1CCOCC1 (stereo not drawn) [CBK268551] | 97.9519
8 | O=C(O)c1c[nH]nc1-c1cccc(Br)c1 [CBK286963] | 128.014
9 | c1ccc(N2CCN(c3cccc(-c4cc5ccccc5o4)n3)CC2)nc1 [CBK036875] | 126.69
10 | COc1ccc(-c2nnc(SC(C)C(=O)Nc3cc(C)no3)n2CC2CCCO2)cc1 (stereo not drawn) [CBK297879] | 61.3559
11 | O=C(O)CSc1nnc(-c2sc3ccccc3c2Cl)n1-c1ccccc1 [CBK263830] | 101.485
12 | O=C(O)c1ccc(NC(CC(=O)c2ccccc2)c2ccc(Br)cc2)cc1 (stereo not drawn) [CBK266195C] | 91.1889
13 | CCNC(Cc1ccc2ccccc2c1)C(=O)OC (stereo not drawn) [CBK071702] | 97.7962
14 | Cc1cc(C)n(CC(=O)N2CCCC(c3cc4cccnc4[nH]3)C2)n1 (stereo not drawn) [CBK284928] | 97.6956
15 | Nc1nc(NCCc2ccccc2)nc(-c2cc(Cl)ccc2O)n1 [CBK074551] | 96.3384
16 | COc1ccc([C@@]23CC[C@@H](NC(=O)N(C)c4ccc(C)cc4)C[C@@H]2N(C)CC3)cc1OC [CBK045681T] | 32.7842
17 | C/C(=N\Nc1cc(-c2ccccc2)nc(C)n1)c1ccc(O)cc1 [CBK261710] | 109.654
18 | O=C(O)/C=C\C(=O)N(C1CCCCC1)C1CCCCC1 [CBK286562] | 62.4855
19 | N#Cc1ccc2nc([C@H]3CCN(C(=O)C4CCCCC4)C3)[nH]c2c1 [CBK289380] | 106.286
20 | CN1CCC(N2CCC[C@H]2c2nc(-c3ccnc(N4CCOCC4)c3)no2)CC1 [CBK288880] | 114.149
21 | COCC1CN(S(=O)(=O)c2cnc3ccsc3c2)C1 [CBK304768] | 80.029
22 | CNC(=O)c1ccc(-c2ccco2)nc1N1CCOCC1 [CBK106212] | 54.9045
23 | Cc1ccc(S(=O)(=O)N2C[C@H](O)C[C@H]2C(=O)O)cc1 [CBK289276] | 109.745
24 | N#CCCCN1CCC(Oc2nccnc2OCc2c(F)cccc2Cl)CC1 [CBK153630] | 100.571
25 | Cn1cc(CC(=O)NCc2ccc(OC3CCNCC3)cc2)c2ccccc21 [CBK028430T] | 96.7938
26 | Cc1ccc(OCc2ccc(Cl)nc2)c(Br)c1 [CBK002842] | 69.7179

Row | SMILES | % of control remaining
27 | Cc1cc2c(cc3c(=O)n(CC(=O)N4CCC(C)CC4)nc(C)n32)o1 [CBK283590] | 102.621
28 | Cc1cc(=O)oc2cc(Sc3ccc([N+](=O)[O-])cc3)ccc12 [CBK002954] | 86.4132
29 | CC(C)C(NS(=O)(=O)c1ccc([N+](=O)[O-])cc1)C(C)C [CBK267656] | 95.3087
30 | Cc1nc(C)c(C(=O)c2coc3ccc(O)cc23)o1 [CBK027631] | 47.6327
31 | O=C(CCn1cnc2cc(-c3noc(-c4cnccn4)n3)ccc21)N1CCCC1 [CBK288595] | 112.897
32 | O=C(CCC1CCCC1)N1CCC(O)(c2cccnc2)CC1 [CBK283603] | 95.0223
33 | c1ccc(OCCSc2nc3ccccc3nc2N2CCCC2)cc1 [CBK103694] | 91.8365
34 | O=C(O)c1cccc(N2C(=O)C3C4C=CC(C3C2=O)C2C(=O)N(c3cccc(C(=O)O)c3)C(=O)C42)c1 (stereo not drawn) [CBK261495] | 87.8032
35 | COc1cc(Nc2cncc(-c3ccc(N)cc3)n2)cc(OC)c1OC [CBK065642] | 30.9501
36 | O=C(NC1(c2ccc(F)cc2)CCCC1)c1cnn2cccnc12 [CBK283612] | 86.7896
37 | CCC(CN1CCOCC1)NC(=O)Cc1coc2cc(C)cc(C)c12 (stereo not drawn) [CBK282812] | 79.4541
38 | CC(NC(=O)CC1(N2CCOCC2)CCCC1)c1cccc(C#N)c1 (stereo not drawn) [CBK305320] | 42.0192
39 | Cc1ccc(S(=O)(=O)N2CCOCC2)cc1C(=O)Oc1cccc2cccnc12 [CBK269726] | 96.3897
40 | CCOC(=O)Cn1nc(CC)n2c(cc3sccc32)c1=O [CBK284073] | 96.5541
41 | CC1CCCN(Cc2c(C3CCOCC3)[nH]c3ncccc23)C1 (stereo not drawn) [CBK284687] | 94.9347
42 | CN(C)CCn1c(=O)[nH]c2ncc(-c3cc(C(F)(F)F)cc(C(F)(F)F)c3)nc21 [CBK065028] | 103.589
43 | CC(Oc1ccc(-c2ccccc2)cc1)C(=O)Nc1ccc(S(N)(=O)=O)cc1 (stereo not drawn) [CBK267979] | 92.0399
44 | COc1cc(Br)c(/C=C(/C#N)C(=O)Nc2ccc(O)cc2)cc1OC [CBK262733] | 86.302
45 | O=C(NCC1Cc2ccccc2O1)c1cccc(NC(=O)c2ccco2)c1 (stereo not drawn) [CBK298302] | 72.8907
46 | COc1cc(CNc2ncc(-c3ccc(N4CCOCC4)cc3)n3ccnc23)cc(OC)c1OC [CBK091219] | 93.2449
47 | CC(=O)N(C)c1nc(-c2cccc(N(C)C)c2)ccc1C(=O)N(C)C [CBK076555] | 114.422
48 | Cc1cnc2c(c1)cc(C1CCOCC1)n2CC(=O)NC1CCCC1 [CBK284755] | 104.078
49 | COc1cccc(Nc2cc(-c3ccco3)ncn2)c1 [CBK090740] | 87.6851
50 | O=C(Nc1ccccc1)C(N1CCCCC1)N1CCCCC1 [CBK263425] | 102.388
51 | CCCC(=O)NCCn1ncc(-c2ccncc2)c1C1CC1 [CBK282116] | 103.855
